Measurements reported in the supplement of paper PMC3724861.
Some of the results follow.

System: T1, Caupolican (Caup) homeodomain DNA-binding domain
T1 sequence: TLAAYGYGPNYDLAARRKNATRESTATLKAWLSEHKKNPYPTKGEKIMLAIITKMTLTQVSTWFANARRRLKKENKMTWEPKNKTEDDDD
Experiment: PBM E-score (8-mer, recovered from the published 9-mer minima) (E-score (dimensionless, -0.5 to 0.5)); Drosophila protein; higher = stronger relative binding preference, active = 0.31 or more
Method in brief: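 Caup's homeodomain DNA-binding domain (residues 214-303) was made by in vitro transcription and translation and applied at 100 nM to custom-designed protein binding microarrays. Each value is an enrichment score that gives relative binding preference for a short DNA word, with higher meaning stronger. The 8-mer values were recovered from published 9-mer scores, each of which was the minimum of its two constituent 8-mer scores. A cutoff of 0.31 marks candidate sites.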

Row | Sequence | PBM E-score
1 | AAGTTACG | inactive: 0.0835
2 | GCAGAAAC | inactive: -0.00268
3 | AGATCGCG | inactive: -0.076
4 | CTTTTGCC | inactive: -0.0326
5 | GAGACCCC | inactive: -0.188
6 | ATTTCCTG | inactive: 0.0432
7 | GGACAGCA | inactive: 0.0565
8 | CGAATGAA | inactive: 0.00722
9 | CATGATAC | inactive: 0.266
10 | CTGGCTGC | inactive: -0.18
11 | CGTCCCTA | inactive: -0.117
12 | CGAGATTC | inactive: -0.01
13 | CCAAGTAG | inactive: -0.0584
14 | CCTGGTCG | inactive: -0.0997
15 | ATATACTG | inactive: 0.156
16 | ATTTTTTC | inactive: -0.0311
17 | AGGCAAGC | inactive: -0.0636
18 | ACTATGGA | inactive: 0.0763
19 | AAAGTGTC | inactive: 0.0956
20 | CCCGTCGA | inactive: -0.142
21 | GATAAAAA | inactive: 0.046
22 | GATCAGTA | inactive: 0.114
23 | AATTTTGA | inactive: 0.115
24 | CCAAGGAA | inactive: -0.0909

Row | Sequence | PBM E-score
25 | ACTGCTAG | inactive: -0.111
26 | AGGGGGGG | inactive: -0.439
27 | AGACTTTG | inactive: -0.0135
28 | AAACACCC | inactive: 0.0513
29 | CCCGTCGC | inactive: -0.208
30 | ACGCCGGA | inactive: -0.134
31 | ACGGAATA | inactive: 0.0566
32 | GCCACTCC | inactive: -0.175
33 | AACGTTTA | inactive: 0.001
34 | GTACGATA | inactive: 0.204
35 | AGAGCTTG | inactive: 0.0254
36 | ATGAGAGG | inactive: -0.154
37 | ATTCACAG | inactive: -0.00235
38 | AGCCCGTA | inactive: -0.102
39 | GTTGCACA | inactive: 0.182
40 | AAATCCAC | inactive: 0.00025
41 | AAACATGT | active: 0.443
42 | CGTCATAA | inactive: 0.081
43 | CCAACTGA | inactive: 0.00487
44 | CTGCTTCA | inactive: -0.169
45 | CCCCAAGG | inactive: -0.244
46 | CAAAATTA | inactive: 0.0569
47 | CGTACTCA | inactive: 0.00173
48 | CAAGACAC | inactive: 0.21

Row | Sequence | PBM E-score
49 | CCGGCGCA | inactive: -0.184
50 | TCAAGCGA | inactive: -0.0899
51 | CGCGACGC | inactive: -0.147
52 | ATTGGTCG | inactive: -0.00807
53 | GATTACAA | active: 0.314
54 | GGGACAGA | inactive: -0.0214
55 | CCCCCCAG | inactive: -0.397
56 | AGCCGGTA | inactive: -0.0702
57 | CGCTGTGA | inactive: -0.0259
58 | ACAATGAA | inactive: 0.197
59 | GGCTTGAC | inactive: -0.139
60 | CTCGTGTA | inactive: 0.27
61 | GGAGGTAA | inactive: -0.008
62 | GCGATCGC | inactive: 0.0258
63 | ATGTGTAG | inactive: 0.193
64 | ACCTCATA | inactive: 0.01
65 | AGAGCTCA | inactive: -0.157
66 | ATCTAGAG | inactive: -0.00866
67 | AGGCCCCG | inactive: -0.287
68 | ATCTATGA | ≥ 0.132
69 | CCTAGACA | inactive: -0.00965
70 | ATACCTGA | ≥ 0.157
71 | CTCATAAA | inactive: 0.05
72 | CGATTTGC | inactive: 0.00382

Row | Sequence | PBM E-score
73 | CCTCGCGC | inactive: -0.142
74 | AGTGCAAT | inactive: 0.0896
75 | GGTCATGA | inactive: 0.0711
76 | CGAAACTA | inactive: 0.0861
77 | CGGTCCTC | inactive: -0.218
78 | CAGGTGAC | inactive: 0.0172
79 | ACATCCCG | inactive: 0.181
80 | AGACGCGA | inactive: -0.0344
81 | CTTGCGTA | inactive: 0.0318
82 | AAACACAA | inactive: 0.27
83 | AAGTACTG | inactive: 0.109
84 | GTGCCCGA | inactive: -0.111
85 | ACACGCCG | inactive: 0.0819
86 | AGCAAGAC | inactive: 0.0516
87 | ACTTGTCA | active: ≥ 0.378
88 | CACCGACA | inactive: 0.117
89 | AGAGTGAG | inactive: 0.0169
90 | AACGGGTA | inactive: 0.0722
91 | CGGAGGAC | inactive: -0.15
92 | AAAAGTAG | inactive: 0.0734
93 | ATTTTAGG | inactive: 0.0422
94 | AAACGATA | inactive: 0.112
95 | CGTCCAAA | inactive: -0.0822
96 | AGAATCTA | inactive: 0.0225

Row | Sequence | PBM E-score
97 | AACTTGTG | inactive: 0.147
98 | ATGGGAAG | inactive: -0.07
99 | CACACCTC | inactive: -0.0165
100 | CTGGACAG | inactive: -0.0238
101 | CCAATAGC | inactive: -0.0344
102 | ATTAATTG | inactive: 0.161
103 | ACGTTCCC | inactive: -0.168
104 | AATGAGGA | inactive: -0.0723
105 | ACAGCATC | inactive: 0.14
106 | TACCCTGA | inactive: 0.0133
107 | ATATGTTA | active: 0.338
108 | CTGACGAC | inactive: 0.0373
109 | ATAGCGTA | inactive: 0.00056
110 | CTTGCAAG | inactive: -0.0875
111 | TGGCGACA | inactive: 0.176
112 | AATTAACA | active: 0.326
113 | TAAAACTA | inactive: 0.171
114 | ATCCGGGG | inactive: -0.103
115 | AGCCTGGG | inactive: -0.123
116 | CAACCTAG | inactive: -0.0215
117 | AATGCTCC | inactive: -0.181
118 | CAGTCCCA | inactive: -0.0161
119 | ATAATGGC | inactive: -0.0829
120 | GTCGAAAA | inactive: 0.0738

Row | Sequence | PBM E-score
121 | AGAAGTTC | inactive: -0.0279
122 | CTGCTTCC | inactive: -0.154
123 | CTATACGC | inactive: -0.0266
124 | CGATCTAA | inactive: 0.111
125 | GGGGGACC | inactive: -0.38
126 | AACCCAGT | inactive: 0.0154
127 | ACAACTCC | inactive: 0.0167
128 | GCGACTAC | inactive: 0.0532
129 | ACTGGCTG | inactive: -0.0429
130 | CCATGCAA | inactive: 0.0685
131 | AAAGCATT | inactive: 0.0591
132 | CACTGCCA | inactive: -0.0653
133 | AAGGTGTA | inactive: 0.155
134 | CAATGGTC | inactive: 0.0441
135 | CAAATCCG | inactive: 0.00194
136 | CAGCAGGA | inactive: -0.0173
137 | AACCGGGA | inactive: -0.0571
138 | GAACACAC | inactive: 0.217
139 | CACAACAG | inactive: 0.0901
140 | CTTGGTCC | inactive: -0.0939
141 | AGAATACG | inactive: 0.0139
